Measurements published in patent US10781262B2, “Combination therapy of T cell activating bispecific antigen binding molecules and PD-1 axis binding antagonists” (Hoffmann-La Roche Inc., priority 2014, dated 2020).

System: CD4^+ T cells and CD8^+ T cells in whole blood
Assay: T cell activation in whole blood
Assay type: cell-based
Conditions: 24 h, absence of FolR1 expressing tumor cells
Excerpt: FIGS. 9A-D depict graphs summarizing activation marker upregulation in whole blood.
DP47 TCB was included as negative control.

B1: Mov19 FolR1 TCB: reference FolR1/CD3 T-cell bispecific with Mov19 binder (antibody)
heavy 1: QVQLQQSGAELVKPGASVKISCKASGYSFTGYFMNWVKQSHGKSLEWIGRIHPYDGDTFYNQNFKDKATLTVDKSSNTAHMELLSLTSEDFAVYYCTRYDGSRAMDYWGQGTTVTVSSASTKGPSVFPLAPSSKSTSGGTAALGCLVKDYFPEPVTVSWNSGALTSGVHTFPAVLQSSGLYSLSSVVTVPSSSLGTQTYICNVNHKPSNTKVDKKVEPKSCDGGGGSGGGGSEVQLVESGGGLVQPKGSLKLSCAASGFTFNTYAMNWVRQAPGKGLEWVARIRSKYNNYATYYADSVKDRFTISRDDSQSILYLQMNNLKTEDTAMYYCVRHGNFGNSYVSWFAYWGQGTLVTVSAASVAAPSVFIFPPSDEQLKSGTASVVCLLNNFYPREAKVQWKVDNALQSGNSQESVTEQDSKDSTYSLSSTLTLSKADYEKHKVYACEVTHQGLSSPVTKSFNRGE[in this place human IgG1 Fc with changes]
heavy 2: QVQLQQSGAELVKPGASVKISCKASGYSFTGYFMNWVKQSHGKSLEWIGRIHPYDGDTFYNQNFKDKATLTVDKSSNTAHMELLSLTSEDFAVYYCTRYDGSRAMDYWGQGTTVTVSSASTKGPSVFPLAPSSKSTSGGTAALGCLVKDYFPEPVTVSWNSGALTSGVHTFPAVLQSSGLYSLSSVVTVPSSSLGTQTYICNVNHKPSNTKVDKKVEPKSCDKTHTCPPCPAPEAAGGPSVFLFPPKPKDTLMISRTPEVTCVVVDVSHEDPEVKFNWYVDGVEVHNAKTKPREEQYNSTYRVVSVLTVLHQDWLNGKEYKCKVSNKALGAPIEKTISKAKGQPREPQVCTLPPSRDELTKNQVSLSCAVKGFYPSDIAVEWESNGQPENNYKTTPPVLDSDGSFFLVSKLTVDKSRWQQGNVFSCSVMHEALHNHYTQKSLSLSPGK
light: DIELTQSPASLAVSLGQRAIISCKASQSVSFAGTSLMHWYHQKPGQQPKLLIYRASNLEAGVPTRFSGSGSKTDFTLNIHPVEEEDAATYYCQQSREYPYTFGGGTKLEIKRTVAAPSVFIFPPSDEQLKSGTASVVCLLNNFYPREAKVQWKVDNALQSGNSQESVTEQDSKDSTYSLSSTLTLSKADYEKHKVYACEVTHQGLSSPVTKSFNRGEC
modifications: left off: another chain or arm of the molecule; small tags and cut ends
- upregulation of CD25 and CD69 on CD4^+ and CD8^+ T cells in whole blood: No activation of T cells
